Measured values as given in the BET-seq Pho4 binding data (Le et al. 2018).
This is one part of the list. The energies were worked out here from pooled read counts, against the library average; single values are noisy.

Each sequence was assayed against T1, Pho4 (S. cerevisiae) (UniProt P07270) (assay: relative binding free energy (BET-seq); higher = weaker binding). Details: reference: library average.
T1 sequence: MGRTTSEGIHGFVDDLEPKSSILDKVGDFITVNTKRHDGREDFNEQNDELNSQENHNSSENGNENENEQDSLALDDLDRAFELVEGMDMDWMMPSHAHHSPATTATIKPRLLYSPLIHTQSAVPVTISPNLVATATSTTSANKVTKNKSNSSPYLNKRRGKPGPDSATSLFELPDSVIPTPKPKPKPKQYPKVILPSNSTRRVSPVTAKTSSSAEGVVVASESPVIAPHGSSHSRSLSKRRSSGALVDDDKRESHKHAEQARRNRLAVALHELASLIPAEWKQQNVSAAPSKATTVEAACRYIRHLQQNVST
In the case of TTGAACACGTGTTATT, the “relative binding free energy” value is reported as 0.06 kcal/mol. For TTATGCACGTGGCGTG, the “relative binding free energy” value was -0.13 kcal/mol. For TTACTCACGTGGGTGT, the “relative binding free energy” value was 0.14 kcal/mol. In the case of TGGGGCACGTGTCGTG, the “relative binding free energy” value is reported as -0.1 kcal/mol. TCTGACACGTGGGTGG was tested, and the “relative binding free energy” value was -0.03 kcal/mol. GGGGACACGTGGGAGT was tested, and the “relative binding free energy” value was -0.09 kcal/mol. In the case of GTTTCCACGTGTAGCG, the “relative binding free energy” value is reported as 0.29 kcal/mol. For TGGTGCACGTGTGCTC, the “relative binding free energy” value was 0.01 kcal/mol. In the case of TTAGGCACGTGGCGGA, the “relative binding free energy” value is reported as -0.22 kcal/mol. With GCAGGCACGTGGCGGT the “relative binding free energy” value was -0.09 kcal/mol. GGTGTCACGTGCCGTG was tested, and the “relative binding free energy” value was 0.03 kcal/mol. TTCTACACGTGTGTGA was tested, and the “relative binding free energy” value was 0.19 kcal/mol. GGCGGCACGTGGGTGC was tested, and the “relative binding free energy” value was -0.24 kcal/mol. TTAGGCACGTGCGATG was tested, and the “relative binding free energy” value was -0.19 kcal/mol. With TGATTCACGTGGAGAT the “relative binding free energy” value was 0.26 kcal/mol. With CGTTCCACGTGGTATT the “relative binding free energy” value was 0.19 kcal/mol. For GTGTGCACGTGTATAT, the “relative binding free energy” value was 0.12 kcal/mol. In the case of GATGACACGTGGTGTT, the “relative binding free energy” value is reported as 0.07 kcal/mol. For GATGTCACGTGCTTGG, the “relative binding free energy” value was 0.11 kcal/mol. For TAGGTCACGTGGTAGT, the “relative binding free energy” value was 0.06 kcal/mol. In the case of GCTGTCACGTGTCGGT, the “relative binding free energy” value is reported as 0.21 kcal/mol. In the case of TTCTCCACGTGTTTAT, the “relative binding free energy” value is reported as 0.14 kcal/mol. In the case of GGGTCCACGTGGTTGC, the “relative binding free energy” value is reported as 0.08 kcal/mol. For GTAGTCACGTGAGTTG, the “relative binding free energy” value was 0.26 kcal/mol. With TCTAGCACGTGTAAGG the “relative binding free energy” value was -0.12 kcal/mol. AAATCCACGTGTGTTG was tested, and the “relative binding free energy” value was 0.1 kcal/mol. For CGGTTCACGTGTGACT, the “relative binding free energy” value was 0.41 kcal/mol. In the case of AAGGTCACGTGAAATG, the “relative binding free energy” value is reported as 0.36 kcal/mol. With ATTCGCACGTGGTTGG the “relative binding free energy” value was -0.15 kcal/mol. TTTCGCACGTGATGTG was tested, and the “relative binding free energy” value was 0.09 kcal/mol. TTTGGCACGTGTGCAG was tested, and the “relative binding free energy” value was -0.06 kcal/mol. TATGACACGTGGGGGA was tested, and the “relative binding free energy” value was -0.07 kcal/mol. With GGGGGCACGTGACGCT the “relative binding free energy” value was 0 kcal/mol. In the case of TGTACCACGTGTGTAT, the “relative binding free energy” value is reported as -0.12 kcal/mol. In the case of GTATTCACGTGTCAGG, the “relative binding free energy” value is reported as 0.27 kcal/mol. TTTGGCACGTGTGATG was tested, and the “relative binding free energy” value was 0 kcal/mol. For GGTTACACGTGTGCGT, the “relative binding free energy” value was 0.18 kcal/mol. In the case of CCTGTCACGTGGGGCG, the “relative binding free energy” value is reported as 0.03 kcal/mol. With CGTAACACGTGAGTTT the “relative binding free energy” value was 0.25 kcal/mol. In the case of AAGTGCACGTGACTGT, the “relative binding free energy” value is reported as 0.15 kcal/mol. In the case of TTTTTCACGTGTGTTG, the “relative binding free energy” value is reported as 0.3 kcal/mol. In the case of AGGGTCACGTGCAAGG, the “relative binding free energy” value is reported as 0.07 kcal/mol. GTTTACACGTGGGTGC was tested, and the “relative binding free energy” value was 0 kcal/mol. With GCAGACACGTGGGGAG the “relative binding free energy” value was -0.14 kcal/mol. For TTAATCACGTGTAAAT, the “relative binding free energy” value was 0.38 kcal/mol. In the case of CTGTTCACGTGCATGG, the “relative binding free energy” value is reported as 0.23 kcal/mol. With GATATCACGTGTTCGT the “relative binding free energy” value was 0.23 kcal/mol. AGGGACACGTGGTGCT was tested, and the “relative binding free energy” value was -0.12 kcal/mol. With CAGCGCACGTGAGGGT the “relative binding free energy” value was 0.24 kcal/mol. In the case of TTAATCACGTGCTTGA, the “relative binding free energy” value is reported as 0.22 kcal/mol. For TATGTCACGTGGTTTT, the “relative binding free energy” value was 0.15 kcal/mol. ATGGGCACGTGTGTTA was tested, and the “relative binding free energy” value was -0.08 kcal/mol. TTTGGCACGTGGTATC was tested, and the “relative binding free energy” value was -0.15 kcal/mol. With ATGTTCACGTGTAAAT the “relative binding free energy” value was 0.29 kcal/mol. For TGTTGCACGTGTTTTG, the “relative binding free energy” value was 0.06 kcal/mol. In the case of TGGGTCACGTGCGATG, the “relative binding free energy” value is reported as 0.15 kcal/mol. In the case of AGAGTCACGTGTTGTT, the “relative binding free energy” value is reported as 0.21 kcal/mol. GTAGTCACGTGTGCGA was tested, and the “relative binding free energy” value was 0.07 kcal/mol. For GCGGACACGTGTGGGA, the “relative binding free energy” value was -0.07 kcal/mol. With AAGTGCACGTGGATTT the “relative binding free energy” value was -0.04 kcal/mol. With TCGGACACGTGTTTAT the “relative binding free energy” value was 0.09 kcal/mol. In the case of GTGAGCACGTGCAGTG, the “relative binding free energy” value is reported as -0.03 kcal/mol. GTGAACACGTGGTCGA was tested, and the “relative binding free energy” value was 0.09 kcal/mol.
